According to patent publication US11351161B2, “Use of CDK9 inhibitors to reduce cartilage degradation” (THE REGENTS OF THE UNIVERSITY OF CALIFORNIA, priority 2011, dated 2022):

Legend:
[1] = test system: rheumatoid arthritis, synovial hyperplasia; conditions: mouse, systemic administration, cited from earlier work
[2] = test system: human cartilage explants; experiment: Col2a cleavage peptide release from IL-1β-treated human cartilage explants (C2C ELISA); assay type: cell-based; conditions: 6 nM, 1 ng/ml IL-1β, 6 days
Protocol: (§1) The amount of glycosaminoglycan (GAG) released into the media was determined by the colorimetric dimethylmethylene blue dye-assay, with chondroitin sulfate as standard (Farndale, et al., Biochim Biophys Acta 883:173-177). The release of Col2a degradation products into the media was determined by measuring the amount of cleaved Col2a peptides (Poole, et al., J Immunol Methods (2004) 294:145-153.) with the […] ELISA kit (IBEX Pharmaceuticals) according to the manufacturer's protocol.

[3] = test system: human cartilage explants; experiment: GAG release from IL-1β-treated human cartilage explants (DMMB assay); assay type: cell-based; conditions: 6 nM, 1 ng/ml IL-1β, 6 days
Protocol: as §1

[4] = test system: NFκB-target primary inflammatory response genes; experiment: PCR array for NFκB targets in IL-1β-treated primary human chondrocytes; assay type: cell-based; conditions: for IL-1β-induced expression of IL-6 in the presence of flavopiridol: 492-fold with IL-1β alone
[5] = test system: chondrocytes in cartilage explants; conditions: after simulated injury with IL-1β
[6] = test system: MMPs and ADAMTS4 (aggrecanase) mRNA; experiment: IL-1β-induced expression of matrix-degrading enzymes in chondrocytes (real-time PCR); assay type: cell-based, human; conditions: co-treatment, 10 ng/ml IL-1β, 5 hours
[7] = test system: iNOS mRNA; experiment: iNOS mRNA induction by different inflammatory stimuli (IL-1β, LPS, TNFα) in chondrocytes; conditions: 300 nM, 10 ng/ml of either IL-1β, LPS or TNFα, 5 hours

- IL-1β-induced expression of MMPs and ADAMTSs [6]: markedly suppressed
- IL-1β-induced expression of MMPs and ADAMTSs ([6]; listed as flavopiridol): effectively suppressed
SMILES: CN1CC[C@H](c2c(O)cc(O)c3c(=O)cc(-c4ccccc4Cl)oc23)[C@H](O)C1 [Flavopiridol, 2-(2-chlorophenyl)-5,7-dihydroxy-8-[(3 S,4R)-3-hydroxy-1-methyl-4-piperidinyl]-4-chromenone]
- rheumatoid arthritis [1]: prevented rheumatoid arthritis
- synovial hyperplasia [1]: reduced synovial hyperplasia
- rheumatoid arthritis ([1]; listed as flavopiridol): effectively prevented rheumatoid arthritis
- Col2a peptides released into the media [2]: reduced
- GAG released into the media [3]: reduced
- repression of IL-1β-dependent inflammatory response gene transcription (IL-6) ([4]; 300 nM, 10 ng/ml IL-1β): 99.2%
- repression of IL-1β activity on average across 3 donors, 54 inflammatory response genes ([4]; 300 nM, 10 ng/ml IL-1β, 5 hours): > 86%
- effects of IL-1β on NFκB-target genes ([4]; 300 nM, 10 ng/ml IL-1β, 5 hours, listed as flavopiridol): almost completely abolishes
- IL-1β-induced expression of IL-6 in the presence of flavopiridol ([4]; 300 nM, 10 ng/ml IL-1β): 4.2 fold
- IL-1β-induced expression of IL-6 in the presence of flavopiridol ([4]; 300 nM, 10 ng/ml IL-1β, listed as flavopiridol): 4.1 fold and 4.2 fold
- inhibition of activation of NF-κB-dependent primary response genes, in most cases ([4]; IL-1β): > 90%
- number of dead or dying cells in cartilage explants [5]: strongly reduced
- activation of iNOS expression in all three pathways [7]: greatly suppressed

Values joined by “and” are separate entries in the source; they are usually repeats but may differ in a detail not shown here. Identical values can stand only once. Like-named read-outs stand apart in the source and are kept apart here.
